PubChem BioAssay AID463173 (ICCB-Longwood Screening Facility, Harvard Medical School, 2010)
In all, about 52,000 compounds went through this assay and about 4,300 (8.3%) were called active. Cut-off read from the data, not from the text of the source: active = survival mostly below about 52% (no sharp cut-off); inactive = mostly above about 56%. The list shows a part of the results.

system: DeltatarO mutant; experiment: S. aureus survival, RN4220 and DeltatarO strains – OD600, teichoic acid synthesis inhibitors, primary screen (AID 463173); conditions: S. aureus RN4220 wild type/DeltatarO growth, OD600, 18 h, stronger effect = lower value, screened at 18.75 µg/mL (by protocol)

SMILES	survival
Cc1cc(S(=O)(=O)NCC(c2ccc(N(C)C)cc2)N2CCOCC2)ccc1F (stereo unspecified)	inactive: 83%
O=C(CSC1=Nc2ccccc2N=C(c2ccc(F)cc2)C1)NCc1ccc(Cl)cc1	inactive: 72%
CC(=O)c1ccc(NC(=O)c2nc3ccccc3n(C)c2=O)cc1	inactive: 80%
CCn1nc(C)c2c(-c3ccccc3)cc(=O)n(C(C)C(=O)NCc3ccc(C)cc3)c21 (stereo unspecified)	inactive: 122%
CCCCCNC(=O)CCn1c(=O)[nH]c2ccccc2c1=O	inactive: 125%
Cc1c(-c2ccc(Cl)cc2)c(=O)oc2c(CN3CCCC3)c(O)ccc12	inactive: 77%
COc1ccc(N2CC(NC(=O)c3ccc(OC(C)C)cc3)CC2=O)cc1 (stereo unspecified)	active: 0%
Nc1ccc2[nH]c(=O)nc(-c3ccccc3)c2c1	inactive: 101%
COc1ccc(-c2nc3sc(CCNS(=O)(=O)c4ccc(F)c(C)c4)c(C)n3n2)cc1	inactive: 81%
COc1ccccc1CNC(=O)CN1C(=O)CCn2nc(-c3ccccc3)cc21	inactive: 57%
Cc1ccc(OCC(=O)Nc2ccc3nc(Nc4cccc(Cl)c4)cc(C)c3c2)cc1	inactive: 132%
Clc1ccc(CNc2cc(-c3ccccc3)nc3nncn23)cc1	inactive: 50%
CCCNC(=O)Cn1nc(-c2ccc(C)c(C)c2)c2cnc3ccc(F)cc3c21	inactive: 69%
COc1ccc(S(=O)(=O)Nc2cccc(-c3ccc(N4CCCC4)nn3)c2)cc1OC	inactive: 85%
O=C(Nc1cccc(C(F)(F)F)c1)Nc1nnc(N2CCCCC2)s1	inactive: 82%
N#Cc1c(Nc2cccc(F)c2)sc(C(=O)c2ccc(Cl)cc2)c1N	inactive: 79%
CCN(c1ccccc1)S(=O)(=O)c1ccc2[nH]cc(C(=O)NCc3ccc(C)cc3)c(=O)c2c1	inactive: 117%
CCOc1ccc(CCNC(=O)C2CCC(CNS(=O)(=O)c3ccc(Cl)cc3)CC2)cc1OCC (stereo unspecified)	inactive: 80%
COc1cccc(-n2cc(C(=O)Nc3cc(C)c(Cl)cc3OC)c3ccccc3c2=O)c1	inactive: 56%

SMILES	survival
Cc1ccccc1C(=O)NN1C(=O)c2ccccc2C1=O	inactive: 98%
CCOc1ccc(CNC(=O)C2CCN(c3nn4c(=O)cc(C)nc4s3)CC2)cc1	inactive: 85%
CCC1(CO)COC(c2ccco2)OC1 (stereo unspecified)	inactive: 65%
COc1ccc(N(C(=O)COc2ccccc2OC)S(=O)(=O)c2ccc(Cl)cc2)cc1	inactive: 71%
COc1nc(OC)nc(N2CCC(C(=O)NC3CCCCCC3)CC2)n1	inactive: 108%
CCc1ccccc1NC(=O)Nc1cc(C(=O)NCc2ccc(OC)cc2)ccc1N1CCCC1	inactive: 94%
Cc1noc(C)c1S(=O)(=O)N1CCCC(C(=O)Nc2ccc(C(C)C)cc2)C1 (stereo unspecified)	inactive: 70%
O=C(c1ccccc1)n1nc(-c2ccco2)nc1NCc1ccccc1Cl	inactive: 103%
O=C(CS(=O)(=O)c1nc(-c2ccc(Cl)cc2)cn1-c1ccccc1)Nc1ccc(F)cc1F	active: 50%
CCn1c(/N=C/c2ccc(OC)cc2O)nc2ccccc21	inactive: 108%
CCc1ccc(C(=O)c2cn(CC(=O)Nc3ccc4c(c3)OCCO4)c3ccc(C)cc3c2=O)cc1	active: 57%
CCOC(=O)c1c(C)[nH]c(C)c1S(=O)(=O)NCC(=O)N1CCN(c2cc(Cl)ccc2C)CC1	inactive: 119%
O=C(CCSCc1ccccc1Cl)N1CCN(c2ccc(F)cc2)CC1	inactive: 66%
CC(Oc1ccccc1)C(=O)N1CCN(Cc2cc(=O)n3nc(-c4ccccc4Cl)sc3n2)CC1 (stereo unspecified)	inactive: 85%
COCc1cc(C)nc2sc3c(c12)NC(c1ccccc1C(=O)O)N(c1ccc(OC)cc1)C3=O (stereo unspecified)	inactive: 89%
CC(=O)c1ccc(NC(=O)COc2ccccc2-c2nc(-c3ccccc3)no2)cc1	inactive: 48%
Cc1ccc(C)c(NC(=O)c2nnn(CC(=O)Nc3cccc(C)c3C)c2N)c1	inactive: 98%
O=c1c2c3c(sc2n(Cc2cc(=O)n4ccccc4n2)c(=O)n1-c1ccccc1)CCC3	inactive: 87%
O=c1cc(CN2CCN(S(=O)(=O)c3ccccc3)CC2)nc2sc(-c3ccccc3Cl)nn12	inactive: 72%

SMILES	survival
COc1ccc(NC(=O)CCCc2nnc3n(CCC(C)C)c(=O)c4sccc4n23)cc1Cl	inactive: 80%
CCOc1ccc(CNC(=O)C2CCN(C(=O)c3sccc3-n3cccc3)CC2)cc1	inactive: 81%
Cc1ccc(-n2c(SCCC(C)C)nc3sc4c(c3c2=O)CC(C)(C)OC4)cc1	inactive: 49%
COc1ccccc1CNC(=O)CN1C(=O)c2cccnc2Oc2ccccc21	inactive: 89%
CCC(=O)N(Cc1cc2ccc(C)cc2n2nnnc12)C1CCCCC1	inactive: 75%
O=C(CSc1nc(-c2ccccc2)nc2c1CCCC2)c1ccc(Cl)cc1	inactive: 76%
O=C(O)CCc1ccc(-c2cccs2)n1CC(=O)Nc1ccccc1C(F)(F)F	inactive: 109%
COc1ccc(Cn2ccc3nc(C)c(C(=O)N4CCN(c5cc(C)ccc5C)CC4)cc3c2=O)cc1	inactive: 94%
CCOC(=O)c1c(NC(=O)CSc2nccn2C)sc2c1CCCC2	inactive: 78%
CCc1cccc(C)c1NC(=O)C(CC)n1ncn2c(cc3cc(C)ccc32)c1=O (stereo unspecified)	inactive: 86%
Cc1ccc(C)c(NC(=O)Cn2c(=O)n(Cc3ccc4c(c3)OCO4)c(=O)c3ccc(C(=O)NC4CCCCC4)cc32)c1	inactive: 88%
CCOc1ccc(CNC(=O)c2cnc3sc(N4CCCCCC4)nn3c2=O)cc1OC	inactive: 83%
Cc1ccc(S(=O)(=O)c2nc(S(=O)(=O)c3ccc(C)cc3)c(NC(C)C)s2)cc1	inactive: 74%
CC1CCCCN1C(=O)C1CCCN(S(=O)(=O)c2ccccc2)C1 (stereo unspecified)	inactive: 71%
CCC(=O)Nc1cc(C(F)(F)F)ccc1N1CCCC1	inactive: 76%
CCOc1ccc(CNC(=O)CN2C(=O)C3CCCCN3c3ccc(C(=O)N4CCCC4)cc32)cc1 (stereo unspecified)	inactive: 113%
CC(C)Oc1ccc(C(=O)N2CC(=O)Nc3ccc(F)cc3C2c2ccc(F)cc2)cc1 (stereo unspecified)	inactive: 53%
CN(C)c1cccc(C(=O)N2CCC(c3ccncc3)CC2)c1	inactive: 88%
